Test results published in paper PMC4274898.
These are yes or no findings as the source states them, for the method shown. Some entries that bind do so weakly or less than the wild type.

T1: ARF12 (Arabidopsis thaliana) (UniProt Q9XID4)
T1 sequence: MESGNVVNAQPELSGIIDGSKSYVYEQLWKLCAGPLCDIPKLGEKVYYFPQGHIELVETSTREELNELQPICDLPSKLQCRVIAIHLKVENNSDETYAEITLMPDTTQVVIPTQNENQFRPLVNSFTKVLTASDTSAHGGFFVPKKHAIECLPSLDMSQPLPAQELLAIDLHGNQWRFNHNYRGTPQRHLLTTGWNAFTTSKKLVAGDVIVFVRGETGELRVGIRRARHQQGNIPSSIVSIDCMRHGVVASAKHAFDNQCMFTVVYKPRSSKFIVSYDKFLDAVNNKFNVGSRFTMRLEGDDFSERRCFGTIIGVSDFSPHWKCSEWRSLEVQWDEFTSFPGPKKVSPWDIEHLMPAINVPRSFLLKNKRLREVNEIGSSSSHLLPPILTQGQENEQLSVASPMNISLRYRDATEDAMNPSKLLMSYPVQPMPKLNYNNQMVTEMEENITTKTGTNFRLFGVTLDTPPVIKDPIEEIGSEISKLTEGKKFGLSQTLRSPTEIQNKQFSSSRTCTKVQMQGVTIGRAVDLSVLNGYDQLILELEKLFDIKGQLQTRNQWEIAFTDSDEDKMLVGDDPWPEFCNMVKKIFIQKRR

T2: ARF3 (Arabidopsis thaliana) (UniProt O23661)
T2 sequence: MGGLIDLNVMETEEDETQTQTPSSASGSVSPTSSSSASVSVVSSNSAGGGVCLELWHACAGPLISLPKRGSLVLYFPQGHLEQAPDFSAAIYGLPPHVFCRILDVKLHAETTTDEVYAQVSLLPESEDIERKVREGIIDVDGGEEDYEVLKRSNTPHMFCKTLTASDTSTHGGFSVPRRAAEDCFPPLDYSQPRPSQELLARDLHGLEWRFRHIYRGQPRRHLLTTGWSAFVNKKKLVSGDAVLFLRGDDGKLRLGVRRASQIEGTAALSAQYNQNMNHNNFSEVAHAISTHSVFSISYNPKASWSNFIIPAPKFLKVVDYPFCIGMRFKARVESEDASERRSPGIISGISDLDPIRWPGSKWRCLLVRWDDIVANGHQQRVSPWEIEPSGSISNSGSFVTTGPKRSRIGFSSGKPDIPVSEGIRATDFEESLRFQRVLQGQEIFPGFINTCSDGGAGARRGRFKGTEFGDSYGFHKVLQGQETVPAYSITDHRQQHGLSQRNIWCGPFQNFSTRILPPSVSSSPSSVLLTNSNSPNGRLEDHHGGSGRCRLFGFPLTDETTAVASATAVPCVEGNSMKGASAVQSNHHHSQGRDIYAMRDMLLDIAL

T3: ARF7 (Arabidopsis thaliana) (UniProt P93022)
T3 sequence: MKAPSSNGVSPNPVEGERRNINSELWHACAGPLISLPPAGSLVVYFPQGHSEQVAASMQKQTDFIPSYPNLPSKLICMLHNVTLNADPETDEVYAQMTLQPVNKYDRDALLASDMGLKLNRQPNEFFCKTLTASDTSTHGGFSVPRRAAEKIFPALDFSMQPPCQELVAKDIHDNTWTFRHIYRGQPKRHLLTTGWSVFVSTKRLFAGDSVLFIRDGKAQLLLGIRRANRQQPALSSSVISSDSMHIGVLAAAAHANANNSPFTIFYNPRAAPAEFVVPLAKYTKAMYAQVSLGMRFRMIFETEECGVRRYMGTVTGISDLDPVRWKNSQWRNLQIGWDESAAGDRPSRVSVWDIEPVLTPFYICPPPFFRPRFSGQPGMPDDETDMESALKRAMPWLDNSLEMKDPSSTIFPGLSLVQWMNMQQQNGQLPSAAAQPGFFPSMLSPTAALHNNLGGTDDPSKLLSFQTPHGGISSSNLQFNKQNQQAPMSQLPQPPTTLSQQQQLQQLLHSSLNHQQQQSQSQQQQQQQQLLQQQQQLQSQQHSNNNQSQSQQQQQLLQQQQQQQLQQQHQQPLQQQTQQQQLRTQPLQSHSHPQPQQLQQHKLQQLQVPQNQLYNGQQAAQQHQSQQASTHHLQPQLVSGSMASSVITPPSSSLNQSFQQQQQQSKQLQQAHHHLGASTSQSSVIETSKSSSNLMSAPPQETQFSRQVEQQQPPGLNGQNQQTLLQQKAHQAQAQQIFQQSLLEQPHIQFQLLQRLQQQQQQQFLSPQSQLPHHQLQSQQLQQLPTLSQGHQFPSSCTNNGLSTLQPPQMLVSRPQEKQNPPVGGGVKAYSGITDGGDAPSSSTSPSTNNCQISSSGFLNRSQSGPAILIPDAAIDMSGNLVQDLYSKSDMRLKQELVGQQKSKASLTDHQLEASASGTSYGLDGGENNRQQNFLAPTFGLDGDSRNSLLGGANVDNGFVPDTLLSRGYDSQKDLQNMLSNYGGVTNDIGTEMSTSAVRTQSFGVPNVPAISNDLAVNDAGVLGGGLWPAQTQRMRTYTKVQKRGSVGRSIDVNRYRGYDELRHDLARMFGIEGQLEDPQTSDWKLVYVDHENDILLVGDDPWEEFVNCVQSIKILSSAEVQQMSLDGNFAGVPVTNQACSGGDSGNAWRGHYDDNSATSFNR


Experiments:
Experiment in all cases: two-hybrid; S. cerevisiae AH109 co-transformed with pGBKT7-ARF (bait) and pGADT7-Aux/IAA (prey); growth on SD/-Ade-His-Leu-Trp against SD/-Leu/-Trp; at least 10 independent colonies; serial dilutions for strength
[1] = target: T1, ARF12 (Arabidopsis thaliana)
[2] = target: T2, ARF3 (Arabidopsis thaliana)
[3] = target: T3, ARF7 (Arabidopsis thaliana)

binding [1] | binding [2] | binding [3] | Binder
no binding | no binding | binds | Aux/IAA6 (protein, UniProt Q38824 1-189) MAKEGLALEITELRLGLPGDNYSEISVCGSSKKKKRVLSDMMTSSALDTENENSVVSSVEDESLPVVKSQAVGWPPVCSYRRKKNNEEASKAIGYVKVSMDGVPYMRKIDLGSSNSYINLVTVLENLFGCLGIGVAKEGKKCEYIIIYEDKDRDWMLVGDVPWQMFKESCKRLRIVKRSDATGFGLQQD
no binding | no binding | binds | Aux/IAA1 (protein, UniProt P49677 1-168) MEVTNGLNLKDTELRLGLPGAQEEQQLELSCVRSNNKRKNNDSTEESAPPPAKTQIVGWPPVRSNRKNNNNKNVSYVKVSMDGAPYLRKIDLKMYKNYPELLKALENMFKFTVGEYSEREGYKGSGFVPTYEDKDGDWMLVGDVPWDMFSSSCQKLRIMKGSEAPTAL
no binding | no binding | binds | Aux/IAA13 (protein, UniProt Q38831 1-247) MITELEMGKGESELELGLGLSLGGGTAAKIGKSGGGGAWGERGRLLTAKDFPSVGSKRAADSASHAGSSPPRSSSQVVGWPPIGSHRMNSLVNNQATKSAREEEEAGKKKVKDDEPKDVTKKVNGKVQVGFIKVNMDGVAIGRKVDLNAHSSYENLAQTLEDMFFRTNPGTVGLTSQFTKPLRLLDGSSEFVLTYEDKEGDWMLVGDVPWRMFINSVKRLRVMKTSEANGLAARNQEPNERQRKQPV
no binding | no binding | binds | Aux/IAA10 (protein, UniProt Q38828 1-261) MNGLQEVCSSSGSVMIGLPAEEDENAAHSSEDSSCPDESVSETELDLALGLSIGRRKVRSSLSSSSSSLTRESGTKRSADSSPAAASNATRQVAVGWPPLRTYRINSLVNQAKSLATEGGLSSGIQKETTKSVVVAAKNDDACFIKSSRTSMLVKVTMDGVIIGRKVDLNALDSYAALEKTLDLMFFQIPSPVTRSNTQGYKTIKETCTSKLLDGSSEYIITYQDKDGDWMLVGDVPWQMFLGSVTRLRIMKTSIGAGVGK
no binding | no binding | binds | Aux/IAA8 (protein, UniProt Q38826 1-321) MSYRLLSVDKDELVTSPCLKERNYLGLSDCSSVDSSTIPNVVGKSNLNFKATELRLGLPESQSPERETDFGLLSPRTPDEKLLFPLLPSKDNGSATTGHKNVVSGNKRGFADTWDEFSGVKGSVRPGGGINMMLSPKVKDVSKSIQEERSHAKGGLNNAPAAKAQVVGWPPIRSYRKNTMASSTSKNTDEVDGKPGLGVLFVKVSMDGAPYLRKVDLRTYTSYQQLSSALEKMFSCFTLGQCGLHGAQGRERMSEIKLKDLLHGSEFVLTYEDKDGDWMLVGDVPWEIFTETCQKLKIMKGSDSIGLAPGAVEKSKNKERV
no binding | no binding | binds | Aux/IAA9 (protein, UniProt Q38827 1-338) MSPEEELQSNVSVASSSPTSNCISRNTLGGLKEHNYLGLSDCSSVGSSTLSPLAEDDKATISLKATELTLGLPGSQSPARDTELNLLSPAKLDEKPFFPLLPSKDEICSSSQKNNASGNKRGFSDTMDQFAEAKSSVYTEKNWMFPEAAATQSVTKKDVPQNIPKGQSSTTNNSSSPPAAKAQIVGWPPVRSYRKNTLATTCKNSDEVDGRPGSGALFVKVSMDGAPYLRKVDLRSYTNYGELSSALEKMFTTFTLGQCGSNGAAGKDMLSETKLKDLLNGKDYVLTYEDKDGDWMLVGDVPWEMFIDVCKKLKIMKGCDAIGLAAAPRAMEKSKMRA
no binding | no binding | binds | Aux/IAA2 (protein, UniProt P49678 1-174) MAYEKVNELNLKDTELCLGLPGRTEKIKEEQEVSCVKSNNKRLFEETRDEEESTPPTKTQIVGWPPVRSSRKNNNSVSYVKVSMDGAPYLRKIDLKTYKNYPELLKALENMFKVMIGEYCEREGYKGSGFVPTYEDKDGDWMLVGDVPWDMFSSSCKRLRIMKGSDAPALDSSL
no binding | no binding | binds | Aux/IAA32 (protein, UniProt Q8RYC6 1-191) MDPNTPADFFKGSSKFHTYYSQTKKGGGVIDLGLSLRTIQHETYLPPARMIGLDGYGELIDWSQPSYNSITQLKSEDTGHQRLAQGYYNNEGESRGKYAYVKVNLDGLVVGRKVCLVDQGAYATLALQLNDMFGMQTVSGLRLFQTESEFSLVYRDREGIWRNVGDVPWKEFVESVDRMRIARRNDALLPF
no binding | no binding | binds | Aux/IAA15 (protein, UniProt Q9C966 1-179) MSPEEYVRVWPDSGDLGGTELTLALPGTPTNASEGPKKFGNKRRFLETVDLKLGEAHENNYISSMVTNDQLVGWPPVATARKTVRRKYVKVALDGAAYLRKVDLGMYDCYGQLFTALENMFQGIITICRVTELERKGEFVATYEDKDGDLMLVGDVPWMMFVESCKRMRLMKTGDAIGL
no binding | no binding | binds | Aux/IAA11 (protein, UniProt Q38829 1-246) MEGGSASGSASALSNDENLVVSCEDSSSPIGNELELGLTLSLGRKGYRDCRVYADDSSSSSSSSSLSRASVIAGIKRTADSMAATSGQVVGWPPIRTYRMNSMVNQAKASATEDPNLEISQAVNKNRSDSTKMRNSMFVKVTMDGIPIGRKIDLNAHKCYESLSNTLEEMFLKPKLGSRTLETDGHMETPVKILPDGSSGLVLTYEDKEGDWMLVGDVPWGMFIGSVRRLRIMKTSEATGKAQMIL
no binding | no binding | binds | Aux/IAA12 (protein, UniProt Q38830 1-239) MRGVSELEVGKSNLPAESELELGLGLSLGGGAWKERGRILTAKDFPSVGSKRSAESSSHQGASPPRSSQVVGWPPIGLHRMNSLVNNQAMKAARAEEGDGEKKVVKNDELKDVSMKVNPKVQGLGFVKVNMDGVGIGRKVDMRAHSSYENLAQTLEEMFFGMTGTTCREKVKPLRLLDGSSDFVLTYEDKEGDWMLVGDVPWRMFINSVKRLRIMGTSEASGLAPRRQEQKDRQRNNPV
